According to article PMC4336329 (PLoS ONE, 2015):
The campaign covered roughly 310,000 compounds. About 2,200 (0.71%) showed an effect of 50% or more. The effect is printed as a negative number. Some of the results follow.

target: human ether-à-go-go-related gene (hERG) potassium channel (human, UniProt Q12809); assay: primary screen, population patch clamp on CHO cells stably expressing hERG
Sequence (Q12809 whole entry, looked up): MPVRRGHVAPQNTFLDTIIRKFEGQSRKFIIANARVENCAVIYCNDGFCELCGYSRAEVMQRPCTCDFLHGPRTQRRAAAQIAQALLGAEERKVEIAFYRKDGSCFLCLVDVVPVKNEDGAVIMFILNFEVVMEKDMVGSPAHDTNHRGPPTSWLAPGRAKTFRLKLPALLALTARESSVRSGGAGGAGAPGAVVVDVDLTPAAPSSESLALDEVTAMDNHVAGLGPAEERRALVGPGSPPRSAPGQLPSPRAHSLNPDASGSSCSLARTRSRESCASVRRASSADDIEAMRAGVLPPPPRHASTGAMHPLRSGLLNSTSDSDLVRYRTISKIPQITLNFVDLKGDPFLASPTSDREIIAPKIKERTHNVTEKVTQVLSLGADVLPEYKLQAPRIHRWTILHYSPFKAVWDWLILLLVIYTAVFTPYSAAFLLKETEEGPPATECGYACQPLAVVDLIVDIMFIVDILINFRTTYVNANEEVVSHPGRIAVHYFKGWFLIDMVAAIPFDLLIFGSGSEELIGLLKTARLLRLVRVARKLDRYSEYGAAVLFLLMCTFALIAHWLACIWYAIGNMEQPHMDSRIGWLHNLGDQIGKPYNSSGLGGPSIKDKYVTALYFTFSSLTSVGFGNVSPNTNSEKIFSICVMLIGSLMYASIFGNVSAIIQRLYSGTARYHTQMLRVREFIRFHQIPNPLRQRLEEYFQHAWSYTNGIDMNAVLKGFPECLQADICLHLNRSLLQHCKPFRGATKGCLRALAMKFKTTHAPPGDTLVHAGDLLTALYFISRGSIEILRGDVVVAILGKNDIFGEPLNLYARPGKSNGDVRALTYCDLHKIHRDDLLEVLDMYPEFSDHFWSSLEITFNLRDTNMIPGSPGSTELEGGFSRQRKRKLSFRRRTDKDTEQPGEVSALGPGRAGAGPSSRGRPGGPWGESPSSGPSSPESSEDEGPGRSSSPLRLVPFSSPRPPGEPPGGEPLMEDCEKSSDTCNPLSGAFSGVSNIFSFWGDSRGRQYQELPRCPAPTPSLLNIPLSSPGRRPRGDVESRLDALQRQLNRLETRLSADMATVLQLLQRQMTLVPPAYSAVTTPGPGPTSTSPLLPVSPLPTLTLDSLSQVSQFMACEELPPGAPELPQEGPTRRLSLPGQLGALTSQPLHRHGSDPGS

Structure (SMILES)	hERG current change (%, negative = inhibition) at 1uM [%]
COc1ccc(N2CCN(C(=O)[C@@H]3CCCN3C3=NS(=O)(=O)c4ccccc43)CC2)cc1	17.6
CN1CCC(=NNC(=O)C(=O)NC2CCCCC2)CC1	4.49
CCCCN(CC)S(=O)(=O)c1ccc(C(=O)Nc2nnc(CSC)o2)cc1	5.85
Cc1ccc(-c2csc(NC(=O)/C=C/c3cccs3)n2)cc1C	12
Cc1cc(C)c(OCC(=O)OC(C)C(=O)N2CCc3ccccc32)c(C)c1 (stereo not drawn)	11.1
COCCN(C(=O)CSc1nnc(Nc2ccccc2F)s1)c1c(N)n(Cc2ccccc2)c(=O)[nH]c1=O	11.2
O=C(NCc1ccc2c(c1)OCO2)C(=O)NC1CCCCC1	6.07
CN(c1ncc(C(F)(F)F)cc1Cl)N1C(=O)c2cccc(N)c2C1=O	9.47
COc1ccc(Oc2cn[nH]c2-c2ccc(OC)cc2O)cc1	3.1
CCN1CCN(CCOc2ccc(Br)cc2C)CC1.O=C(O)C(=O)O	6.43
S=C(NCc1ccco1)Nc1ccc(Cl)cc1Cl	14.5
CCN(CC(=O)NC(C)C)C(=O)CCNC(=O)c1ccc(Cl)cc1	14.1
COc1ccccc1CCNC(=O)C(=O)NCC1OCCN1C(=O)c1ccc(Cl)cc1 (stereo not drawn)	6.93
Cc1cccc(OCC(=O)Nc2ccc(C(=O)NCc3cccnc3)cc2)c1	11
CCC(C)c1ccc(NC(=S)Nc2ccc(OC)cc2)cc1 (stereo not drawn)	8.97
O=C(NCc1ccc(F)cc1)c1cnccn1	16
CCCCC(O)(c1ccc(F)cc1)C(CN1CCOCC1)c1ccc(Cl)cc1.Cl (stereo not drawn)	13.7
COC(=O)C(C)NC(=O)C(C)NC(=O)OCc1ccccc1 (stereo not drawn)	8.9
COc1ccc(CCNC(=O)CSc2n[nH]c(C)c2[N+](=O)[O-])cc1OC	4.15

Structure (SMILES)	hERG current change (%, negative = inhibition) at 1uM [%]
Cc1ccccc1CSCC(=O)Nc1ccccc1Br	14.5
CCCNC(=O)CCCN1C(=O)c2ccccc2Sc2ncccc21	25.4
Cc1cc(C)n(-c2ncnc3ccccc23)n1	16.4
COc1ccc(Cn2c(=S)[nH]c3ccccc32)cc1	4
CC(=O)c1c(C)[nH]c(C(=O)CSc2nnc(-c3ccccc3)n2Cc2ccc3c(c2)OCO3)c1C	-0.381
Cc1c(OCC(=O)NCc2ccccn2)ccc2c3c(c(=O)oc12)CCCC3	11.3
O=C(O)CCC(=O)N1CCN(c2nc3ccccc3s2)CC1	-2.75
COc1ccc2c(c1)[nH]c1c(=O)n(CCC3=CCCCC3)cnc12	1.57
Cc1ccc([N+](=O)[O-])cc1S(=O)(=O)Nc1ccc(C(=O)N(C)C)cc1	6.91
CC1CN(C(=O)c2ccc(-c3ccccc3Cl)o2)CC(C)O1 (stereo not drawn)	10.5
CCOC(=O)CNC(=O)c1sc(NC(=O)c2ccccc2)nc1C	6.33
CCC(CC)C(=O)Nc1ccc(Nc2ccccc2)cc1	11.8
O=C(CSc1nnc(CNC(=O)c2ccccc2F)o1)c1ccc(Cl)cc1	9.22
COC(=O)c1cccc(NC(=S)NCc2ccc(Cl)cc2)c1	8.88
COC(=O)c1ccc(NC(=S)NC2CC3CCC2C3)cc1 (stereo not drawn)	14.7
CCc1cc(C(=O)N(C)CC(=O)N(CC(C)C)c2c(N)n(CC(C)C)c(=O)[nH]c2=O)sc1C	9.28
COc1ccc(OC)c2[nH]c(=O)c(CCNC(=O)c3cc4ccccc4o3)cc12	-1.8
CSc1ccccc1NS(=O)(=O)c1ccc2c(c1)OCCO2	10.3
CCCNc1nc(C)cc(-c2cc(C(=O)Nc3ccccc3)on2)n1	6.25

Structure (SMILES)	hERG current change (%, negative = inhibition) at 1uM [%]
COc1ccc(CCNC(=O)CSc2nn(-c3ccccc3)c(=S)s2)cc1	7.31
Cc1ccc(-c2nnc(SCC(=O)N(C)C)nc2-c2ccc(C)cc2)cc1	-45.5
N#Cc1ccccc1S(=O)(=O)N1CCN(C(=O)c2ccc(-n3cncn3)c([N+](=O)[O-])c2)CC1	10.1
Cc1ccc(OCCN(C)C(=O)c2cc(COc3ccc(F)cc3F)on2)cc1	-0.323
Cc1ccc2c(Cl)c(C(=O)NCCc3ccccc3)sc2c1	7.6
CC(C)C(NS(=O)(=O)c1cccc(C(F)(F)F)c1)C(=O)N1CCc2ccccc2C1 (stereo not drawn)	13.9
NS(=O)(=O)c1ccc(N=NN2CCCCC2)cc1	5.02
Cc1ccc(N(CC(=O)NCc2ccc(F)cc2)C(=O)c2snc(C(N)=O)c2N)cc1C	10.8
Cc1cc(=O)oc2cc(OCC3CC(c4ccc(Br)cc4)=NO3)ccc12 (stereo not drawn)	21.4
COc1cc(O)c(C(=O)/C=C/c2ccccc2)c(OC)c1	15.3
COc1ccc(CCN(C)C/C=C/c2ccccc2)cc1OC	-43.3
Cc1ccc(OCC(=O)Oc2ccc(C)c(C)c2)cc1	12.1
COc1ccc(C2c3cc(OC)c(OC)cc3CCN2C(=O)c2ccccc2Br)cc1OC (stereo not drawn)	9.35
COc1ccc(C(=O)N/N=C\c2ccc(OC)c(COc3ccccc3Br)c2)c(OC)c1	8.53
Cc1ccc(C(=O)N2CCCCC2)cc1S(=O)(=O)N1CCCCCC1	8.28
C(=C\c1ccccc1)/C=N/Nc1nc(N2CCOCC2)nc(N2CCOCC2)n1	5.52
N#C/C(=C\c1ccco1)c1nc2ccccc2s1	8.16
CC1CCc2c(C(=O)N3CCN(S(=O)(=O)c4cccs4)CC3)csc2C1 (stereo not drawn)	3.43
Nc1cc(=O)[nH]c(=S)n1-c1ccccc1	8.75
